From a collection of fitness landscapes (doi:10.1126/science.1257360) come the findings set out here.

The other results are listed elsewhere or left out.

B1: PhoQ; a variant is named by its letters at X, in order, P23837 (parent)
chain: MKKLLRLFFPLSLRVRFLLATAAVVLVLSLAYGMVALIGYSVSFDKTTFRLLRGESNLFYTLAKWENNKLHVELPENIDKQSPTMTLIYDENGQLLWAQRDVPWLMKMIQPDWLKSNGFHEIEADVNDTSLLLSGDHSIQQQLQEVREDDDDAEMTHSVAVNVYPATSRMPKLTIVVVDTIPVELKSSYMVWSWFIYVLSANLLLVIPLLWVAAWWSLRPIEALAKEVRELEEHNRELLNPATTRELTSLVRNLNRLLKSERERYDKYRTTLTDLTHSLKTPLXXLQXXLRSLRSEKMSVSDAEPVMLEQISRISQQIGYYLHRASMRGGTLLSRELHPVAPLLDNLTSALNKVYQRKGVNISLDISPEISFVGEQNDFVEVMGNVLDNACKYCLEFVEISARQTDEHLYIVVEDDGPGIPLSKREVIFDRGQRVDTLRPGQGVGLAVAREITEQYEGKIVAGESMLGGARMEVIFGRQHSAPKDE

In the assay the parent is B1. In words: enrichment ratio after two sorts for PhoP signalling (ratio (wild type AVST 3.29)); higher = more functional. To be noted: with PhoP (E. coli).
For the variant SNTV, the enrichment ratio worked out at 9.06.
On to PEML, for which the enrichment ratio is not above 0.25.
Under NDWG stands not above 0.25.
With WHQH the figure was not above 0.25; with FRQT, not above 0.25; with KGHF, not above 0.25.
With NTHK the figure was not above 0.25.
For WHGM, the enrichment ratio is not above 0.25.
Under FICI stands 6.17; under GCVD, not above 0.25.
With LFLW, the enrichment ratio is not above 0.25.
On to MNHP, for which the enrichment ratio is not above 0.25.
On to DHCY, for which the enrichment ratio was not above 0.25.
With YMDP the figure was not above 0.25; with RSAV, not above 0.25; with SYCM, not above 0.25.
Turning to KGHM, the enrichment ratio is not above 0.25.
For the variant MGAN, the enrichment ratio worked out at 12.6.
Regarding ILQM, the enrichment ratio is not above 0.25.
With NQYK, the enrichment ratio is not above 0.25.
With LQGD the figure was not above 0.25.
With DFMA, the enrichment ratio is not above 0.25.
Under FVVP stands not above 0.25.
With HKQD the figure was not above 0.25.
In the case of DMQD, the enrichment ratio was not above 0.25.
As for KFYV, the enrichment ratio is not above 0.25.
Under LMED stands not above 0.25; under PQHH, not above 0.25.
Turning to EMLI, the enrichment ratio was not above 0.25.
Under FNIK stands not above 0.25.
Under HILE stands not above 0.25; under VEQG, not above 0.25; under ECCR, not above 0.25.
In the case of MPYH, the enrichment ratio was not above 0.25.
Regarding YRAP, the enrichment ratio was not above 0.25.
Under TYNI stands 2.3; under LKFC, not above 0.25.
In the case of SFSI, the enrichment ratio was not above 0.25.
With NIIS the figure was not above 0.25; with QWMF, not above 0.25.
For EHAW, the enrichment ratio was not above 0.25.
As to TYCF, the enrichment ratio was not above 0.25.
YTHA: the enrichment ratio is not above 0.25.
For VEYD, the enrichment ratio was not above 0.25.
Regarding KVWW, the enrichment ratio is not above 0.25.
For VNCA, the enrichment ratio was not above 0.25.
With LCGY the figure was not above 0.25.
With FGFQ the figure was not above 0.25; with RYSA, not above 0.25.
Under SGLR stands not above 0.25; under YCWG, not above 0.25.
As to SFMP, the enrichment ratio is not above 0.25.
For the variant GACE, the enrichment ratio is not above 0.25.
Under LTKN stands not above 0.25; under RNII, not above 0.25; under KPTY, not above 0.25.
As to SGPQ, the enrichment ratio is not above 0.25.
For the variant MHVH, the enrichment ratio was not above 0.25.
With FAFC the figure was not above 0.25; with EVTS, not above 0.25.
For the variant NNDM, the enrichment ratio was not above 0.25.
Under DMYK stands not above 0.25.
In the case of RGGK, the enrichment ratio was not above 0.25.
With TMFQ the figure was not above 0.25; with GWSY, not above 0.25.
Under MWSM stands not above 0.25.
For the variant QTVD, the enrichment ratio was not above 0.25.
Take HMKH: the enrichment ratio is not above 0.25.
With GKHA the figure was not above 0.25; with TMMQ, not above 0.25.
Under GPER stands not above 0.25; under RKCS, not above 0.25.
With QETA, the enrichment ratio is not above 0.25.
Under QRIY stands not above 0.25; under YTIQ, not above 0.25.
Consider QHIT, for which the enrichment ratio is not above 0.25.
With EFCQ the figure was not above 0.25; with SYGF, not above 0.25.
Under DDLL stands not above 0.25; under NLNS, not above 0.25.
With HGIS the figure was not above 0.25; with PIHE, not above 0.25; with KGMC, not above 0.25.
As to QFFT, the enrichment ratio is not above 0.25.
Turning to AVPA, the enrichment ratio is not above 0.25.
Under KNRV stands not above 0.25; under QYQK, not above 0.25.
Under FVWI stands not above 0.25; under KGTF, not above 0.25.
For DGSY, the enrichment ratio is not above 0.25.
DLTD: the enrichment ratio was not above 0.25.
With QGHP the figure was not above 0.25.
For ASHQ, the enrichment ratio was not above 0.25.
Turning to RCKT, the enrichment ratio was not above 0.25.
Under TGHT stands 8.76; under HSQR, not above 0.25.
With NKWH the figure was not above 0.25.
As for YKSE, the enrichment ratio is not above 0.25.
Turning to ESPH, the enrichment ratio was not above 0.25.
With AKKW the figure was not above 0.25; with VLFN, not above 0.25; with ITMG, not above 0.25.
Under SLAQ stands 3.9; under MFFG, not above 0.25; under INNV, not above 0.25.
KPAP: the enrichment ratio was not above 0.25.
In the case of AKEA, the enrichment ratio is not above 0.25.
With DNQN, the enrichment ratio is not above 0.25.
With WSHN the figure was not above 0.25; with RMIM, not above 0.25.
Turning to PAVW, the enrichment ratio is not above 0.25.
With FDIT the figure was not above 0.25; with RDCS, not above 0.25.
Under RKMA stands not above 0.25; under VYDW, not above 0.25; under MHAQ, not above 0.25.
With VLYY the figure was not above 0.25; with SSVQ, 9.83; with PSTG, not above 0.25.
On to IDVC, for which the enrichment ratio was not above 0.25.
With WKCV, the enrichment ratio is not above 0.25.
With RHCY the figure was not above 0.25; with VNFL, not above 0.25.
In the case of EDEG, the enrichment ratio was not above 0.25.
Under LEMR stands not above 0.25.
NVPS: the enrichment ratio was not above 0.25.
As to AYHE, the enrichment ratio is not above 0.25.
For the variant VKFT, the enrichment ratio is not above 0.25.
With PNAK the figure was not above 0.25; with WSGP, not above 0.25; with SNGD, not above 0.25.
In the case of IGFP, the enrichment ratio is not above 0.25.
Take VQII: the enrichment ratio was not above 0.25.
Under ESPG stands not above 0.25; under SVMW, not above 0.25.
Take PCDL: the enrichment ratio was not above 0.25.
In the case of AHQW, the enrichment ratio was not above 0.25.
With THEC the figure was not above 0.25; with EACW, not above 0.25.
For the variant MNCK, the enrichment ratio was not above 0.25.
Under ERSW stands not above 0.25; under ILNC, not above 0.25.
With AAGI the figure was not above 0.25.
Consider FKQT, for which the enrichment ratio was not above 0.25.
Under IYIH stands not above 0.25; under ADQI, not above 0.25; under VNFW, not above 0.25.
With RVWP the figure was not above 0.25.
In the case of LVPP, the enrichment ratio was not above 0.25.
Take QVVK: the enrichment ratio is not above 0.25.
With RNQD the figure was not above 0.25.
Under RTSI stands not above 0.25; under MWEW, not above 0.25.
